The chains are these.
T1: RBFOX1 RRM (Homo sapiens, UniProt Q9NWB1 109-208)
T1 sequence: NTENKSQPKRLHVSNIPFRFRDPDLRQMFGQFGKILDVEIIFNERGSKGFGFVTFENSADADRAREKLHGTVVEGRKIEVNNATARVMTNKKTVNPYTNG

B1: UAAACUA (DNA:RNA)
RNA: GGGAGACCGGAAUUCAGAUUGUCCUAAACUAUUAAAUCCCGUCGUAGCCACCA
DNA 1: CAATCTGAATTCCGGTCTCCC
DNA 2: TGGTGGCTACGACGGGATT
B2: AUUAAAG (DNA:RNA)
RNA: B1 RNA with U25A, A26U, A27U, C29A, U30A, A31G
DNA 1: CAATCTGAATTCCGGTCTCCC
DNA 2: TGGTGGCTACGACGGGATT
B3: CCAUGGG (DNA:RNA)
RNA: B1 RNA with U25C, A26C, A28U, C29G, U30G, A31G
DNA 1: CAATCTGAATTCCGGTCTCCC
DNA 2: TGGTGGCTACGACGGGATT
B4: GGACGCU (DNA:RNA)
RNA: B1 RNA with U25G, A26G, A28C, C29G, U30C, A31U
DNA 1: CAATCTGAATTCCGGTCTCCC
DNA 2: TGGTGGCTACGACGGGATT
B5: AACGAGU (DNA:RNA)
RNA: B1 RNA with U25A, A27C, A28G, C29A, U30G, A31U
DNA 1: CAATCTGAATTCCGGTCTCCC
DNA 2: TGGTGGCTACGACGGGATT
B6: AUACCUA (DNA:RNA)
RNA: B1 RNA with U25A, A26U, A28C
DNA 1: CAATCTGAATTCCGGTCTCCC
DNA 2: TGGTGGCTACGACGGGATT
B7: GAAUUUU (DNA:RNA)
RNA: B1 RNA with U25G, A28U, C29U, A31U
DNA 1: CAATCTGAATTCCGGTCTCCC
DNA 2: TGGTGGCTACGACGGGATT
B8: AAAUGGU (DNA:RNA)
RNA: B1 RNA with U25A, A28U, C29G, U30G, A31U
DNA 1: CAATCTGAATTCCGGTCTCCC
DNA 2: TGGTGGCTACGACGGGATT
B9: ACGUAGU (DNA:RNA)
RNA: GGGAGACCGGAAUUCAGAUUGUCCACGUAGUUUAAAUCCCGUCGUAGCCACCA
DNA 1: CAATCTGAATTCCGGTCTCCC
DNA 2: TGGTGGCTACGACGGGATT
B10: GUCUAGA (DNA:RNA)
RNA: B9 RNA with A25G, C26U, G27C, U31A
DNA 1: CAATCTGAATTCCGGTCTCCC
DNA 2: TGGTGGCTACGACGGGATT
B11: GCAUACG (DNA:RNA)
RNA: B9 RNA with A25G, G27A, G30C, U31G
DNA 1: CAATCTGAATTCCGGTCTCCC
DNA 2: TGGTGGCTACGACGGGATT
B12: CCUUUGA (DNA:RNA)
RNA: B9 RNA with A25C, G27U, A29U, U31A
DNA 1: CAATCTGAATTCCGGTCTCCC
DNA 2: TGGTGGCTACGACGGGATT
B13: ACAUCUU (DNA:RNA)
RNA: B9 RNA with G27A, A29C, G30U
DNA 1: CAATCTGAATTCCGGTCTCCC
DNA 2: TGGTGGCTACGACGGGATT
B14: AACAUAG (DNA:RNA)
RNA: B1 RNA with U25A, A27C, C29U, U30A, A31G
DNA 1: CAATCTGAATTCCGGTCTCCC
DNA 2: TGGTGGCTACGACGGGATT
B15: CUAGCCC (DNA:RNA)
RNA: B1 RNA with U25C, A26U, A28G, U30C, A31C
DNA 1: CAATCTGAATTCCGGTCTCCC
DNA 2: TGGTGGCTACGACGGGATT
B16: GGGUGCU (DNA:RNA)
RNA: B9 RNA with A25G, C26G, A29G, G30C
DNA 1: CAATCTGAATTCCGGTCTCCC
DNA 2: TGGTGGCTACGACGGGATT
B17: GCUUAAC (DNA:RNA)
RNA: B9 RNA with A25G, G27U, G30A, U31C
DNA 1: CAATCTGAATTCCGGTCTCCC
DNA 2: TGGTGGCTACGACGGGATT
B18: UCGGCAA (DNA:RNA)
RNA: B1 RNA with A26C, A27G, A28G, U30A
DNA 1: CAATCTGAATTCCGGTCTCCC
DNA 2: TGGTGGCTACGACGGGATT
B19: CCUAUAA (DNA:RNA)
RNA: B1 RNA with U25C, A26C, A27U, C29U, U30A
DNA 1: CAATCTGAATTCCGGTCTCCC
DNA 2: TGGTGGCTACGACGGGATT
B20: UACUGAG (DNA:RNA)
RNA: B1 RNA with A27C, A28U, C29G, U30A, A31G
DNA 1: CAATCTGAATTCCGGTCTCCC
DNA 2: TGGTGGCTACGACGGGATT
B21: CCAUAUU (DNA:RNA)
RNA: B9 RNA with A25C, G27A, G30U
DNA 1: CAATCTGAATTCCGGTCTCCC
DNA 2: TGGTGGCTACGACGGGATT
B22: GAUGGUC (DNA:RNA)
RNA: B1 RNA with U25G, A27U, A28G, C29G, A31C
DNA 1: CAATCTGAATTCCGGTCTCCC
DNA 2: TGGTGGCTACGACGGGATT
B23: AGUGGAC (DNA:RNA)
RNA: B9 RNA with C26G, G27U, U28G, A29G, G30A, U31C
DNA 1: CAATCTGAATTCCGGTCTCCC
DNA 2: TGGTGGCTACGACGGGATT
B24: UCAAUAU (DNA:RNA)
RNA: B1 RNA with A26C, C29U, U30A, A31U
DNA 1: CAATCTGAATTCCGGTCTCCC
DNA 2: TGGTGGCTACGACGGGATT
B25: GUGCGUU (DNA:RNA)
RNA: B9 RNA with A25G, C26U, U28C, A29G, G30U
DNA 1: CAATCTGAATTCCGGTCTCCC
DNA 2: TGGTGGCTACGACGGGATT
B26: UGGCUGC (DNA:RNA)
RNA: B9 RNA with A25U, C26G, U28C, A29U, U31C
DNA 1: CAATCTGAATTCCGGTCTCCC
DNA 2: TGGTGGCTACGACGGGATT
B27: UGGCGAC (DNA:RNA)
RNA: B9 RNA with A25U, C26G, U28C, A29G, G30A, U31C
DNA 1: CAATCTGAATTCCGGTCTCCC
DNA 2: TGGTGGCTACGACGGGATT
B28: CUGCAAG (DNA:RNA)
RNA: B9 RNA with A25C, C26U, U28C, G30A, U31G
DNA 1: CAATCTGAATTCCGGTCTCCC
DNA 2: TGGTGGCTACGACGGGATT
B29: GCCGUCU (DNA:RNA)
RNA: B9 RNA with A25G, G27C, U28G, A29U, G30C
DNA 1: CAATCTGAATTCCGGTCTCCC
DNA 2: TGGTGGCTACGACGGGATT
B30: GCCCCUU (DNA:RNA)
RNA: B9 RNA with A25G, G27C, U28C, A29C, G30U
DNA 1: CAATCTGAATTCCGGTCTCCC
DNA 2: TGGTGGCTACGACGGGATT
B31: CGGGCUU (DNA:RNA)
RNA: B9 RNA with A25C, C26G, U28G, A29C, G30U
DNA 1: CAATCTGAATTCCGGTCTCCC
DNA 2: TGGTGGCTACGACGGGATT

This is an account of results in publication PMC9911399, “Two distinct binding modes provide the RNA-binding protein RbFox with extraordinary sequence specificity”.

Numbering of substitutions follows the chain as printed; changes in the protein carry UniProt numbers. This is one part of the list.

The assay has as its target T1, RBFOX1 RRM. Description: EMSA; HiTS-Eq, 1 nM pool, 10 min; buffer printed only for the single-RNA assays: 10 mM Tris pH 7.5, 150 mM NaCl, 3.4 mM EDTA, 0.001% NP-40, 30 C. The settings on record: tags: His6 N-terminal (pET28a); label: 5' 32P. The gist of the method:
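These values rest on relative association constants, computed from read-count changes of each RNA species versus the control reaction and normalised to the cognate motif. Reads came from free RNA recovered by 8% native PAGE after purified RbFox RRM (wild type or mutant) at increasing concentrations was equilibrated for 10 min in 50 µL with 1 nM of a 5′-radiolabelled pool with 7 randomized nucleotides and DNA-annealed flanks.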
On the technique in general: In EMSA bound probe runs differently from free probe, usually more slowly.
Turning to B1, the binding signal was 0.00429 KA relative to UGCAUGU. As to B2, the binding signal was 0.0014 KA relative to UGCAUGU. B3: the binding signal is 0.00466 KA relative to UGCAUGU. With B4, the binding signal is 0.0229 KA relative to UGCAUGU. For B5, the binding signal was 0.00616 KA relative to UGCAUGU. Then B6, with 0.002 KA relative to UGCAUGU; and B7, with 0.00914 KA relative to UGCAUGU; and B8, with 0.00783 KA relative to UGCAUGU. Then B9, with 0.006 KA relative to UGCAUGU; and B10, with 0.016 KA relative to UGCAUGU.

As for B11, the binding signal is 0.00943 KA relative to UGCAUGU. With B12 the figure was 0.0137 KA relative to UGCAUGU; with B13, 0.000772 KA relative to UGCAUGU; with B14, 0.00269 KA relative to UGCAUGU. On to B15, for which the binding signal is 0.00639 KA relative to UGCAUGU. Then B16, with 0.0276 KA relative to UGCAUGU; and B17, with 0.00706 KA relative to UGCAUGU. In the case of B18, the binding signal is 0.0131 KA relative to UGCAUGU. As for B19, the binding signal was 0.00109 KA relative to UGCAUGU. In the case of B20, the binding signal was 0.02 KA relative to UGCAUGU. As to B21, the binding signal is 0.000356 KA relative to UGCAUGU. As to B22, the binding signal is 0.0172 KA relative to UGCAUGU. Turning to B23, the binding signal was 0.00437 KA relative to UGCAUGU.

As for B24, the binding signal was 0.000624 KA relative to UGCAUGU. In the case of B25, the binding signal was 0.0209 KA relative to UGCAUGU. With B26 the figure was 0.0373 KA relative to UGCAUGU.

As to B27, the binding signal was 0.00695 KA relative to UGCAUGU. Turning to B28, the binding signal was 0.0259 KA relative to UGCAUGU. Regarding B29, the binding signal was 0.0102 KA relative to UGCAUGU. Regarding B30, the binding signal was 0.00548 KA relative to UGCAUGU. Then B31, with 0.0317 KA relative to UGCAUGU.
